According to the antibiotic and cytotoxicity screens of Wong et al. (2023):
The other results are listed elsewhere or left out.

How the values were obtained:
HSkMC = human skeletal muscle cells; experiment: cytotoxicity call (relative viability < 0.9); details: 10 µM
HepG2 = experiment: cytotoxicity call (relative viability < 0.9); details: 10 µM
S. aureus RN4220 = experiment: growth inhibition call (relative growth <= 0.2); details: 50 µM

SMILES | cytotoxicity call (HSkMC) | cytotoxicity call (HepG2) | growth inhibition call (S. aureus RN4220)
COc1ccc(-c2csc(CCN)n2)cc1 | inactive | inactive | inactive
COc1cncc(O)c1 | inactive | inactive | inactive
C[C@H](CO)N1C[C@H](C)[C@@H](CN(C)S(=O)(=O)c2ccc(Cl)cc2)OCCCC[C@H](C)Oc2ccc(NC(=O)Cc3ccccc3)cc2C1=O | inactive | active | inactive
CO[C@@H]1CN(C)C(=O)c2ccc(NS(=O)(=O)CC(F)(F)F)cc2OC[C@@H](C)N(Cc2ccccn2)C[C@H]1C | inactive | inactive | inactive
COc1ccccc1NC(=O)N(C)C[C@H]1Oc2ncc(C#CC(C)C)cc2C(=O)N([C@@H](C)CO)C[C@@H]1C | inactive | inactive | inactive
CC=Cc1ccc2n(c1=O)C[C@@H]1[C@@H](CO)[C@H](C(=O)NCCC)[C@H]2N1S(=O)(=O)c1cn(C)cn1 | inactive | inactive | inactive
CO[C@H]1CN(C)C(=O)c2cc(NC(=O)Nc3ccc(Cl)cc3)ccc2OC[C@H](C)N(C(=O)Nc2c(C)noc2C)C[C@@H]1C | inactive | inactive | inactive
Cc1cc(O)c(-c2ccc([C@@H](C)CN)cc2)c2c1[nH]c(=O)c1sccc12 | inactive | active | inactive
C[C@@H]1CN([C@H](C)CO)C(=O)c2cc(NS(=O)(=O)c3ccccc3)ccc2O[C@@H](C)CCCCO[C@@H]1CN(C)C(=O)CCC(F)(F)F | inactive | inactive | inactive
Cc1ccc(S(=O)(=O)Nc2ccc3c(c2)C(=O)N([C@H](C)CO)C[C@@H](C)[C@H](CN(C)S(=O)(=O)c2cn(C)cn2)O3)cc1 | inactive | inactive | inactive
COc1ccc(CN2C[C@@H](C)[C@@H](OC)CN(C)C(=O)c3ccc(NC(=O)c4nc5ccccc5s4)cc3OC[C@H]2C)cc1 | inactive | inactive | inactive
C[C@H]1CN([C@@H](C)CO)C(=O)c2cc(NC(=O)CCC(F)(F)F)ccc2O[C@@H]1CN(C)Cc1ccc(-c2ccccc2)cc1 | inactive | active | inactive
C[C@@H]1CN([C@H](C)CO)S(=O)(=O)c2ccc(-c3cncnc3)cc2O[C@@H]1CN(C)C(=O)c1ccc2c(c1)OCO2 | inactive | inactive | inactive
Cc1noc(C)c1S(=O)(=O)Nc1ccc2c(c1)C(=O)N([C@@H](C)CO)C[C@H](C)[C@@H](CN(C)Cc1ccccc1)O2 | inactive | inactive | inactive
C[C@@H]1CCCCO[C@@H](CN(C)C(=O)c2ccccc2)[C@H](C)CN([C@H](C)CO)C(=O)c2cc(NC(=O)CCC(F)(F)F)ccc2O1 | inactive | inactive | inactive
C[C@H]1CN([C@@H](C)CO)C(=O)Cc2cc(NC(=O)Nc3ccc(C(F)(F)F)cc3)ccc2O[C@@H]1CN(C)S(=O)(=O)c1ccc(Cl)cc1 | inactive | active | inactive
C[C@H]1CCCCO[C@H](CN(C)S(=O)(=O)c2ccc(Cl)cc2)[C@@H](C)CN([C@@H](C)CO)C(=O)c2cc(NS(=O)(=O)c3ccc(F)cc3)ccc2O1 | inactive | active | inactive
C[C@H]1CN([C@@H](C)CO)C(=O)c2cc(NC(=O)Nc3cccc4ccccc34)ccc2O[C@H]1CN(C)S(=O)(=O)c1ccc(Cl)cc1 | inactive | inactive | inactive
COCC#Cc1cnc2c(c1)C(=O)N([C@@H](C)CO)C[C@H](C)[C@H](CN(C)C(=O)Nc1ccccc1OC)O2 | inactive | inactive | inactive

SMILES | cytotoxicity call (HSkMC) | cytotoxicity call (HepG2) | growth inhibition call (S. aureus RN4220)
CO[C@@H]1CN(C)C(=O)c2cc(NC(=O)c3ccccc3)ccc2OC[C@@H](C)N(C(=O)CN(C)C)C[C@H]1C | inactive | inactive | inactive
C[C@H](CO)N1C[C@H](C)[C@H](CN(C)Cc2ccc(Oc3ccccc3)cc2)Oc2cc(-c3ccncc3)ccc2S1(=O)=O | inactive | inactive | inactive
C[C@@H]1CN([C@@H](C)CO)C(=O)c2cc(NS(C)(=O)=O)ccc2O[C@H]1CN(C)S(=O)(=O)c1ccc(Cl)cc1 | inactive | inactive | inactive
CC1=C(C(=O)O)N2C(=O)[C@H](NC(=O)[C@@H](N)c3ccccc3)[C@H]2SC1 | inactive | inactive | inactive
CC(C)NC(=O)Nc1ccc2c(c1)C(=O)N([C@@H](C)CO)C[C@H](C)[C@H](CN(C)Cc1ccccc1)OCCCC[C@@H](C)O2 | inactive | inactive | inactive
COc1ccc(CN(C)C[C@@H]2OCCCC[C@H](C)Oc3ccc(NC(=O)Nc4c(C)noc4C)cc3C(=O)N([C@@H](C)CO)C[C@H]2C)cc1 | inactive | inactive | inactive
Cc1cccc(C)c1OCC(=O)NC(Cc1ccccc1)C(O)CC(Cc1ccccc1)NC(=O)C(C(C)C)N1CCCNC1=O (stereo unspecified) | inactive | inactive | inactive
COCC#Cc1ccc2c(c1)O[C@H](CN(C)C(=O)C1CCCCC1)[C@@H](C)CN([C@@H](C)CO)S2(=O)=O | inactive | inactive | inactive
C[C@H]1CN([C@@H](C)CO)S(=O)(=O)c2ccc(C#Cc3ccc(F)cc3)cc2O[C@@H]1CN(C)S(=O)(=O)c1cn(C)cn1 | inactive | inactive | inactive
C[C@@H]1CCCCO[C@H](CN(C)CC2CCCCC2)[C@H](C)CN([C@H](C)CO)C(=O)c2cc(NC(=O)NC3CCCCC3)ccc2O1 | inactive | active | inactive
CCCCc1oc2ccc(NS(C)(=O)=O)cc2c1C(=O)c1ccc(OCCCN(CCCC)CCCC)cc1.Cl | active | active | inactive
CO[C@H](CN(C)S(=O)(=O)c1ccc(F)cc1)[C@H](C)CN([C@H](C)CO)S(=O)(=O)c1cccc(Cl)c1 | inactive | inactive | inactive
C[C@@H]1[C@@H]([Si](C)(C)F)[C@H](CC(=O)N2Cc3ccccc3C[C@H]2CO)O[C@@]12C(=O)N(c1ccccc1)c1ccccc12 | inactive | inactive | inactive
COc1cccc(S(=O)(=O)N(C)C[C@H]2Oc3ncc(C#CC(C)C)cc3C(=O)N([C@H](C)CO)C[C@H]2C)c1 | inactive | inactive | inactive
OCC1OC(Oc2cc(O)cc(C=Cc3ccc(O)cc3)c2)C(O)C(O)C1O (stereo unspecified) | inactive | inactive | inactive
C[C@@H]1CN([C@H](C)CO)C(=O)Cc2cc(NC(=O)Nc3cccc4ccccc34)ccc2O[C@H]1CN(C)C(=O)Nc1ccc(C(F)(F)F)cc1 | inactive | inactive | inactive
C[C@@H]1CCCCO[C@@H](CN(C)S(=O)(=O)c2cccs2)[C@@H](C)CN([C@@H](C)CO)C(=O)c2cc(NC(=O)Nc3ccc(F)cc3)ccc2O1 | inactive | inactive | inactive
CS(=O)(=O)c1nnnn1-c1ccc2c(c1)OCO2 | inactive | inactive | inactive
C[C@@H]1CCCCO[C@@H](CN(C)C(=O)NC2CCCCC2)[C@@H](C)CN([C@H](C)CO)C(=O)c2cc(NC(=O)Nc3ccccc3)ccc2O1 | inactive | inactive | inactive

SMILES | cytotoxicity call (HSkMC) | cytotoxicity call (HepG2) | growth inhibition call (S. aureus RN4220)
Cc1nnc2sc(=S)[nH]n2c1=O | inactive | inactive | inactive
COC(=O)c1cc(C)cc(=O)o1 | inactive | inactive | inactive
COCC#Cc1ccc2c(c1)O[C@H](CN(C)Cc1ccc(F)cc1)[C@@H](C)CN([C@H](C)CO)S2(=O)=O | inactive | inactive | inactive
C[C@@H]1CN([C@H](C)CO)C(=O)Cc2cc(NC(=O)Cc3ccccc3)ccc2O[C@@H]1CN(C)Cc1ccc(Oc2ccccc2)cc1 | inactive | active | inactive
C[C@H](CO)N1C[C@H](C)[C@@H](CN(C)C(=O)Nc2ccc(C(C)(C)C)cc2)OCc2cn(nn2)CCCC1=O | inactive | inactive | inactive
C[C@H](O)CC1=C[C@H](O)[C@@H](C)OC1=O | inactive | inactive | inactive
Cc1ccc2c(c1)C(=O)C[C@@H](c1ccc(Cl)cc1Cl)O2 | inactive | inactive | inactive
Cc1noc(C)c1S(=O)(=O)Nc1ccc2c(c1)C(=O)N([C@H](C)CO)C[C@H](C)[C@@H](CN(C)S(C)(=O)=O)OCCCC[C@H](C)O2 | inactive | inactive | inactive
COCC(=O)N1C[C@H](C)[C@@H](OC)CN(C)C(=O)c2cc(NC(=O)c3ccc(OC)cc3)ccc2OC[C@H]1C | inactive | inactive | inactive
Cc1ccc(S(=O)(=O)Nc2ccc3c(c2)C(=O)N([C@H](C)CO)C[C@@H](C)[C@H](CN(C)S(C)(=O)=O)OCCCC[C@@H](C)O3)cc1 | inactive | inactive | inactive
CC1CCC2(C(=O)OC3OC(COC4OC(CO)C(OC5OC(C)C(O)C(O)C5O)C(O)C4O)C(O)C(O)C3O)CCC3(C)C(=CCC4C5(C)CC(O)C(O)C(C)(CO)C5CCC43C)C2C1C (stereo unspecified) | inactive | inactive | inactive
CC(=O)Nc1cc(C(C)C)c(C(C)C)cc1C(C)C | inactive | inactive | inactive
Cn1nnc2cc(CO)ccc21 | inactive | inactive | inactive
COc1ccc(CNC(=O)C[C@@H]2CC[C@@H]3[C@H](COc4ccc(NC(=O)C5CC5)cc4C(=O)N3C)O2)cc1 | inactive | inactive | inactive
O=C(O)c1ccoc1 | inactive | inactive | inactive
C[C@@H]1CN([C@@H](C)CO)C(=O)c2cc(NC(=O)Nc3ccc4c(c3)OCO4)ccc2O[C@@H](C)CCCCO[C@@H]1CN(C)C(=O)c1ccccc1 | inactive | inactive | inactive
C[C@@H]1CCCCO[C@@H](CN(C)C(=O)Cc2ccccc2)[C@H](C)CN([C@H](C)CO)C(=O)c2cc(NC(=O)Nc3ccc(F)cc3)ccc2O1 | inactive | active | inactive
COc1ccc(NC(=O)N(C)C[C@@H]2OCCCC[C@@H](C)Oc3ccc(NC(=O)Nc4ccccc4)cc3C(=O)N([C@@H](C)CO)C[C@@H]2C)cc1 | inactive | inactive | inactive
C[C@@H]1CCCCO[C@H](CN(C)Cc2ccc3c(c2)OCO3)[C@H](C)CN([C@H](C)CO)C(=O)c2cc(NS(=O)(=O)c3ccc(Cl)cc3)ccc2O1 | inactive | inactive | inactive
